# Laboratory results: the supplement of paper PMC12217912
# The list shows a part of the results. The full chains were built here from the parent and the listed change. Values near 0.05 are background.
# B1: TEV protease; numbered along this chain (parent)
# chain: MGESLFKGPRDYNPISSSICHLTNESDGHTTSLYGIGFGPFIITNKHLFRRNNGTLVVQSLHGVFKVKDTTTLQQHLVDGRDMIIIRMPKDFPPFPQKLKFREPQREERICLVTTNFQTKSMSSMVSDTSCTFPSGDGIFWKHWIQTKDGQCGSPLVSTRDGFIVGIHSASNFTNTNNYFTSVPKNFMELLTNQEAQQWVSGWRLNADSVLWGGHKVFMVKPEEPFQPVKEATQL
# Variants of: B1
# Assay: raw area under fraction-flipped curve 0-4 h after induction (AUC4h, not background-subtracted), DNA-recorder readout of cleavage of the substrate (dimensionless); higher = more cleavage of the substrate by the protease variant
# Details: temperature: 34 °C; time window: 0-4 h after rhamnose induction
# 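Also: Bxb1 expression induced with 0.2% (w/v) L-rhamnose at OD600 near 0.5, cultures sampled hourly, flipped fraction per protease–substrate barcode pair counted by paired-end Illumina sequencing.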
Variant,area with substrate ENLCFQS,area with substrate ENLDFQS,area with substrate ENLEFQS,area with substrate ENLFFQS,area with substrate ENLGFQS,area with substrate ENLHFQS,area with substrate ENLIFQS,area with substrate ENLKFQS,area with substrate ENLLFQS,area with substrate ENLMFQS,area with substrate ENLNFQS,area with substrate ENLPFQS,area with substrate ENLQFQS,area with substrate ENLRFQS,area with substrate ENLSFQS,area with substrate ENLVFQS,area with substrate ENLWFQS,area with substrate ENLTFQS
L112G,0.0789,0.0652,0.0498,0.0616,0.0508,0.0514,0.0877,0.0644,0.053,0.0667,0.047,0.0594,0.0609,0.0639,0.0492,0.0589,0.0398,
N116C,0.0856,0.0537,0.069,,,0.0825,,0.0702,0.0742,,,0.0628,,,0.062,,,
F117L,0.0694,0.0857,0.0528,0.0714,,0.0623,,0.0751,,,0.0621,,0.0645,,0.0721,,0.081,
K120D,0.0844,0.0562,0.0646,,0.0804,,0.0951,0.0643,0.0665,,0.0581,0.0691,,,0.0734,,,
K120E,0.0735,0.082,,,0.0688,0.0687,,0.0753,,,0.0773,0.0653,,0.0672,0.0779,0.0848,0.0671,0.0709
K120N,0.0495,,0.0689,0.0772,,0.0807,0.0318,0.0766,,,,,,,,0.0437,,
S121T,0.0531,0.0405,,0.0918,,0.0755,,,,,,,,,,0.0954,0.0811,
F133G,0.0798,0.0725,,0.0736,0.0825,0.0686,0.0811,0.0564,,,0.074,,,0.0721,0.0692,0.0917,0.058,
G138H,0.0576,,0.065,0.083,,,,0.0662,0.0623,,0.0257,,,,0.0489,0.0528,,
G138R,0.067,,0.064,0.0716,,0.0599,0.065,0.0805,,,0.0741,0.0591,,,0.0721,0.0679,,
K142Y,0.0846,0.0597,0.065,,,0.0611,,0.0766,0.0862,,0.0749,0.0565,,,0.0583,,0.0657,
W144G,0.0691,0.0561,0.0764,,,0.0693,,0.0982,0.0589,,0.0578,,0.0573,,,0.068,0.0645,
I145R,0.0517,0.0663,0.07,0.0494,,0.0588,,,,0.061,0.0741,,,0.0782,0.0325,,,
G150C,0.0497,0.0627,,0.0706,0.064,0.0597,0.0557,0.0662,0.068,0.0747,0.0597,0.0479,0.0605,0.0808,0.0614,0.0487,0.0459,
P155Q,0.0586,0.0587,0.0552,0.0693,0.0615,0.059,0.0495,0.0583,0.0508,0.0526,0.0542,0.0485,0.0604,0.0549,0.0428,0.0659,0.0557,0.0519
R160M,0.0831,,,0.0776,,0.0464,,,,,0.0721,,,,0.059,,,
